Test results taken from PubChem BioAssay AID624417 (National Center for Advancing Translational Sciences (NCATS), 2012).
Values joined by “and” are separate entries in the source; they are usually repeats but may differ in a detail not shown here. Equal values may be shown once. About 6,400 (1.6%) of roughly 410,000 compounds were called active. This list was built around the results that the source calls inconclusive (neither active nor inactive); the mix of calls is not that of the screen. The call rests on the fitted dose curve; in most records, active means well fitted inhibition curve with a large enough effect; inconclusive means small, poorly fitted or top-dose-only effect; inactive means no such curve, though single readings can be large or run the other way. Potencies beside an inconclusive call are fits to weak or partial responses and may not hold up.

The molecules below were run against Glucagon-like peptide 1 receptor (Homo sapiens) (UniProt P43220) (assay: qHTS of GLP-1 Receptor Inverse Agonists (Inhibition Mode)). Details: HEK293 GLP-1R CRE-luciferase, luminescence, 24 h, GLP-1R form is constitutively active; activity change, negative = inhibition: at 38.3 µM (top of the series) unless noted.
Procedure, shortened: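 qHTS in 1536-well format: reporter HEK293 cells expressing constitutive GLP-1R activity in DMEM + 10% Nu serum, 24 hr with compounds at 37 deg C, luminescence read after 12 min with detection reagent.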
Further: nearly all actives have a fitted effect of over 55% in size.
On the % scale 0 is the no-effect control and ±100 the full control effect; potency means the concentration at half of the fitted maximal effect; tags describe the fitted curve by direction and shape.

Sequence of UniProt P43220 (P43220 whole entry, looked up): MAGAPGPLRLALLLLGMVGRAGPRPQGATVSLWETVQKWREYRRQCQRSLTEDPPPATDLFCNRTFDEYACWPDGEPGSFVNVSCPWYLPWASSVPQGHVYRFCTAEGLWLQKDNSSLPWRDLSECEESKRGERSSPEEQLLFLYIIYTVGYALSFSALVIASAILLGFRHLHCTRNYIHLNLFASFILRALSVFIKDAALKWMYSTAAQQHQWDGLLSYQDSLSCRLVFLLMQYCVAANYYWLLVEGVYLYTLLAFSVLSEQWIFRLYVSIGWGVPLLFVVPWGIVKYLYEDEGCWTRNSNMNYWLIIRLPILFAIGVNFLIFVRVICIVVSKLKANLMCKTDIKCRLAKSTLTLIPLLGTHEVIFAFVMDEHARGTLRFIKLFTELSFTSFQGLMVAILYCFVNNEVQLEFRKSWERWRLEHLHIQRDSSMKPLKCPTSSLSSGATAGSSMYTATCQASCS

Compound | Potency | activity change, negative = inhibition
O=C1NCCC/C1=N\Nc1ccc(Br)cc1 | inconclusive: 20 µM [inhibitor, single point] | 
CCOC(=O)c1c(C)[nH]c(C)c1S(=O)(=O)NCc1cc(C)ccc1C | inconclusive: 10 µM [inhibitor, single point] | 
NC(=NCc1ccco1)NC(=O)c1ccc(Cl)cc1 | inconclusive: 12.6 µM [inhibitor, single point] | 
COc1ccc(-n2nc(C(=O)NCC(=O)N3CCOCC3)c3ccccc3c2=O)c(OC)c1 |  | inactive: -2.49%
Brc1ccc(Sc2cnc3ccccc3n2)cc1 | inconclusive: 10 µM [inhibitor, single point] | 
O=C1/C(=C\c2ccc([N+](=O)[O-])cc2)CS(=O)(=O)C/C1=C/c1ccc([N+](=O)[O-])cc1 | inconclusive: 5.62 µM [inhibitor, partial curve, poor fit] | 
CC(C)(C)c1ccc(C(=O)NC(=S)NNC(=O)c2cccs2)cc1 | inconclusive: 25.1 µM [inhibitor, single point] | 
CCOc1cccc(C2c3[nH]c4ccccc4c3CCN2C(=O)c2ccccc2F)c1 (stereo not given) | active: 5.62 µM | 
CCCCC(=O)Oc1ccc2oc(-c3ccc(OC)cc3)cc(=O)c2c1 |  | inactive: 12.5%
O=[N+]([O-])c1ccc(NN=Cc2ccco2)nc1 | inconclusive: 28.2 µM [inhibitor, single point] | 
CN(C)c1cccc(C(=O)Nc2nnc(Cc3ccccc3)s2)c1 | inconclusive: 28.2 µM [inhibitor, partial curve, poor fit] | 
CCCn1cc(CN2CCCC(C(=O)c3cccc(OC(C)C)c3)C2)c(C)n1 (stereo not given) | inconclusive: 28.2 µM [inhibitor, single point] | 
CC(C)CNC(=O)c1cccc2c(-c3ccc(F)c(F)c3)coc12 | inconclusive: 28.2 µM [inhibitor, single point] | 
CCOC(=O)c1c(NC(=O)COC(=O)c2cccnc2OCC)sc(C(=O)N(CC)CC)c1C | inconclusive: 10 µM [inhibitor, partial curve] | 
O=C(Nc1ccc(Cl)cc1)C1=Cc2ccccc2OC1 | inconclusive: 28.2 µM [inhibitor, single point] | 
Cc1cccc(N2CCN(Cc3ccc([N+](=O)[O-])o3)CC2)c1C | inconclusive: 10 µM [inhibitor, partial curve, poor fit] | 
OC(c1ccc(Cl)cc1)c1nnc(-c2ccccc2)o1 (stereo not given) | inconclusive: 31.6 µM [inhibitor, partial curve, poor fit] | 
Cc1ccccc1N1CCN(C2CCCN(C(=O)c3cnsn3)C2)CC1 (stereo not given) | inconclusive: 10 µM [inhibitor, partial curve] | 
CC(=O)c1c(C)[nH]c(C(=O)Nc2ccc(Cl)cc2F)c1C |  | inactive: 0.819%
COc1cc(C(=O)NCCOc2cc(C)cc(C)c2)c(Br)c(OC)c1OC | inconclusive: 12.6 µM [inhibitor, partial curve, poor fit] | 
CN(Cc1ccc(F)cc1)S(=O)(=O)c1nnc(NC(=O)c2ccccc2Br)s1 | inconclusive: 12.6 µM [inhibitor, single point] and inconclusive: 10 µM [inhibitor, single point] | 
COC(=O)c1sc(S(=O)(=O)N2CCCCC2)c(C(=O)OC)c1C |  | inactive: 0%

Compound | Potency | activity change, negative = inhibition
S=C(NNc1ccnc2cc(Cl)ccc12)Nc1ccc(Cl)cc1Cl | inconclusive: 28.2 µM [inhibitor, single point] | 
c1ccc(Nc2nc(NCCN3CCOCC3)nc(Nc3ccccc3)n2)cc1 | inconclusive: 3.55 µM [inhibitor, single point] | 
O=C(Nc1nc(-c2cccs2)cs1)c1ccc(Cl)cc1 | inconclusive: 11.2 µM [inhibitor, partial curve, poor fit] | 
COc1ccccc1N1CCN(C(=O)c2ccc(C(C)(C)C)cc2)CC1 | inconclusive: 15.8 µM [inhibitor, partial curve, poor fit] | 
CCN(CC)c1nc(C(N)=O)cc(-c2ccccc2)n1 | inconclusive: 28.2 µM [inhibitor, single point] | 
O=C(CN1C(=O)COc2ccc(S(=O)(=O)N3CCCC3)cc21)Nc1cccc(F)c1 | inconclusive: 11.2 µM [inhibitor, single point] | 
C/C=C/c1ccc(OCCOCCNCc2ccccc2)c(OC)c1 | inconclusive: 14.1 µM [inhibitor, single point] | 
COCCNC(=O)CN(c1cc(C(F)(F)F)ccc1Cl)S(C)(=O)=O |  | inactive: 2.18%
Cc1ccc(Cl)cc1NC(=O)Nc1nnc(N2CCCC(C)C2)s1 (stereo not given) |  | inactive: 19.5%
Clc1ccc(CN2CCCCCCC2)cc1Cl | inconclusive: 3.98 µM [inhibitor, partial curve, poor fit] | 
Cc1ccc(SCCNC(=O)/C=C/c2ccc([N+](=O)[O-])cc2)cc1 | inconclusive: 28.2 µM [inhibitor, single point] | 
CCCCOc1ccc(/C=N/Nc2cc(N3CCOCC3)nc(C)n2)cc1 |  | inactive: 15.9%
COC(=O)c1c(NC(=O)CN(c2ccccc2)S(C)(=O)=O)sc2c1CCCC2 | inconclusive: 12.6 µM [inhibitor, partial curve, poor fit] | 
CC(C)CN(C(=O)COC(=O)CSc1ccc(Br)cc1)C1CCS(=O)(=O)C1 (stereo not given) |  | inactive: 18.4%
O=C(CN1C(=O)c2cccc3cccc1c23)N1CCc2ccccc2C1 | inconclusive: 10 µM [inhibitor, partial curve] | 
O=S1(=O)CC(N2CCCC2)CN1Cc1cn(Cc2ccc(Cl)cc2)nn1 (stereo not given) |  | inactive: 15.9%
O=C1CC(c2cc3c(cc2Br)OCO3)C2=C(CCCC2=O)N1 (stereo not given) |  | inactive: 0%
O=C(COc1ccc(Cl)cc1Cl)NCCN1CCCC1 | inconclusive: 11.2 µM [inhibitor, partial curve] | 
CCc1ccc(NC(=O)COC(=O)c2ccc(Cl)c(S(=O)(=O)N3CCCCCC3)c2)cc1 | inconclusive: 28.2 µM [inhibitor, single point] | 
O=C(Nc1ccncc1)Nc1ccccn1 |  | inactive: -12.8%
CC(=O)Nc1cccc(-c2ccnc3c2CC(C)(C(=O)Nc2ccc(F)c(Cl)c2)O3)c1 (stereo not given) | inconclusive: 8.91 µM [inhibitor, partial curve, poor fit] | 
COc1ccc(/C=N/NC(=O)c2ccc(N)cc2)cc1Cn1cc([N+](=O)[O-])cn1 | inconclusive: 10 µM [inhibitor, partial curve] | 

Compound | Potency | activity change, negative = inhibition
O=C(NCc1ccc(Cl)cc1)c1ccc(-c2ccccc2C(F)(F)F)o1 | inconclusive: 28.2 µM [inhibitor, single point] | 
CCN(CC(=O)Nc1ccccc1C(F)(F)F)C(=O)CCS(=O)(=O)c1ccc(Cl)cc1 | inconclusive: 12.6 µM [inhibitor, partial curve, poor fit] | 
O=C(c1cccc(N2CCCC2=O)c1)N1CCN(c2cccc(Cl)c2)CC1 | inconclusive: 2.82 µM [inhibitor, partial curve, poor fit] | 
COc1ccc(-c2cnn3c4c(c(C)nc23)CCN4C(C)C)cc1OC |  | inactive: 0%
CCC1CCCCN1C(=O)CSc1nnc(-c2cccc(Cl)c2)o1 (stereo not given) | inconclusive: 28.2 µM [inhibitor, single point] | 
CCCCc1nn(-c2cc(Cl)ccc2OC)c2c1C(=O)CC(C)(C)C2 | inconclusive: 10 µM [inhibitor, partial curve, poor fit] | 
Cc1ccc(S(=O)(=O)c2nnn3c2nc(NC(C)c2ccccc2)c2sccc23)cc1 (stereo not given) |  | inactive: 29.3%
COc1ccc(OC2C(=O)N(Cc3ccc4c(c3)OCO4)C2c2sccc2C)cc1 (stereo not given) |  | inactive: 0%
CC1(C(=O)NCc2cccc(C(F)(F)F)c2)CCN1Cc1ccc2ccccc2c1 (stereo not given) | inconclusive: 10 µM [inhibitor, single point] | 
Fc1cnc(N2CCOCC2)nc1N1CCc2ccccc21 | inconclusive: 15.8 µM [inhibitor, partial curve, poor fit] | 
Cc1ccc(NC(=O)c2ccccc2NS(=O)(=O)c2ccc(Cl)s2)cc1S(=O)(=O)N1CCOCC1 | inconclusive: 2.51 µM [inhibitor, full curve] | 
COc1ccc(/C=N/N=C(\N)c2nonc2N)cc1 | inconclusive: 12.6 µM [inhibitor, single point] | 
CC1(C)CC(=O)c2c(O)cc(OCC(=O)N3CCN(c4ccc(F)cc4)CC3)cc2O1 | inconclusive: 11.2 µM [inhibitor, partial curve, poor fit] | 
Cc1cc(NC(=O)CCC(=O)N(Cc2ccco2)C2(C(=O)NC3CCCCC3)CCCCC2)no1 | inconclusive: 28.2 µM [inhibitor, single point] | 
O=C(COCc1cc(-c2ccc(F)cc2)on1)Nc1cccc(Cl)c1Cl |  | inactive: 3.24%
O=C(c1cccc(-n2cccc2)c1)N1CCN(S(=O)(=O)c2ccc(F)cc2)CC1 | inconclusive: 28.2 µM [inhibitor, single point] | 
CC(OC(=O)c1c2c(nc3ccccc13)/C(=C\c1ccc3c(c1)OCO3)CCC2)C(=O)Nc1ccc(S(N)(=O)=O)cc1 (stereo not given) | inconclusive: 10 µM [inhibitor, partial curve, poor fit] | 
CCCCCc1c(O)c2ccccc2[nH]c1=O |  | inactive: 0%
O=C(COC(=O)C1(c2cccc(F)c2)CCCC1)NCc1cccs1 | inconclusive: 8.91 µM [inhibitor, partial curve, poor fit] | 
CSc1ccc(C2=CC(=O)C[C@H](c3ccc(F)cc3)C2)cc1 | inconclusive: 10 µM [inhibitor, partial curve] | 
O=C(CCCn1c(=O)c2ccccc2n(CC(=O)Nc2cccc(C(F)(F)F)c2)c1=O)NCc1ccc2c(c1)OCO2 |  | inactive: 9.06%
